Assay results taken from ChEMBL document CHEMBL4888484, “Replenishing the malaria drug discovery pipeline: Screening and hit evaluation of the MMV Hit Generation Library 1 (HGL1) against asexual blood stage Plasmodium falciparum ,using a nano luciferase reporter read-out” (2022).
Out of some 150,000 compounds screened, about 540 (0.36%) showed an effect of 50% or more. Some of the results follow.

system: Plasmodium falciparum; assay: Primary screen in NF54 nanoGlo assay, in single point, at 2uM, 72h; a lower Z score goes with more inhibition; assay type: functional, Erythrocyte; conditions: timepoint 72 hour

Row | Compound | % Inhibition [%] | Z score
1 | O=C1N(c2ccccc2)C(=O)C2(Cc3ccc(Cl)cc3N3CCOC[C@H]32)C(=O)N1c1ccccc1 | 7 | -0.91
2 | Cc1cc(C)n2ncc(CN3C[C@@H]4CC[C@H](C3)C(=O)N4)c2n1 | -11 | 1.38
3 | Nc1nccc(N2C[C@H](c3cccc(F)c3F)[C@@H]3[C@H]2C2CCN3CC2)n1 | -10 | 1.75
4 | O=C(NCc1cccnc1)C(Cl)(Cl)Cl | -17 | 2.23
5 | Cc1nc(C(C)C)cc(N2C[C@H]3COc4ccccc4C[C@@]3(C(=O)O)C2)n1 | -11 | 1.63
6 | CN1CCN2CCN(c3ccc(-c4ccccc4)nn3)C[C@H]2C1=O | -9 | 0.88
7 | Cc1ccc(C(C)C)c(OC(=O)NCCCCNC(=O)Oc2cc(C)ccc2C(C)C)c1 | -13 | 1.96
8 | O=C(NC[C@@H](c1ccco1)S(=O)(=O)c1ccccc1)Oc1ccccc1 | -8 | 1.22
9 | CCC(=O)N1C[C@@H](c2cc(F)cc(F)c2)[C@@H]2[C@H]1C1CCN2CC1 | 1 | -0.19
10 | Fc1ccc(COc2ccc3c(c2)CCNC3)cc1 | -4 | 0.67
11 | Cc1cc(C)cc(NC(=O)[C@H]2CC23CCNCC3)c1 | -5 | 0.97
12 | C[C@@H](Cc1ccsc1)NCc1cn(CC(F)(F)F)c(=O)[nH]c1=O | -1 | 0.22
13 | CCCc1nn(Cc2ccn(C(C)C)n2)c(=O)o1 | -9 | 0.81
14 | O=C(c1ccc(Cl)cc1)N1C[C@H]2c3ccccc3OC[C@@]2(C(=O)O)C1 | -9 | 1.17
15 | COC(=O)C1C2C(=O)N(c3ccc(OC)cc3)C(=O)C12c1ccc(C)cc1 (centres undefined) | 3 | -0.35
16 | COc1ccccc1CCN1C(=O)N(c2cccc(C(F)(F)F)c2)[C@@H](n2oc(=O)n(-c3cccc(C(F)(F)F)c3)c2=O)C1(C)C | -4 | 0.56
17 | CC(C)(O)CN[C@@H](Cc1cccnc1)c1cccc(Cl)c1 | -12 | 1.6
18 | CC(C)C(C)(O)C(=O)N1C2CCC1C(CO)C2 (centres undefined) | -5 | 0.99
19 | CC(C)N1C(=O)NC(=O)C2(Cc3c(Cl)cccc3N3CCCC32)C1=O (centres undefined) | -6 | 0.84
20 | CN(C)CCc1ccc(NC(=O)[C@@H]2CCCCN2C)cc1 | 4 | -0.49
21 | CCc1nccn1C[C@H](C)N1CCN(C(C)C)CC1 | 2 | -0.47
22 | C=C(C)C(C)(C)C(=O)Nc1cccc(S(=O)(=O)F)c1 | -3 | 0.36
